Measurements reported in publication PMC13434659.
No constants are given. Whether binding was seen depends on the method and setting. Binding seen in cells or lysates may run through a third protein. Some entries that bind do so weakly or less than the wild type. Tags and fused reporters may be left off the sequences shown. Blank lines part the entries; values can stand above or below the binder they belong to.

Legend:
Flag-tagged PKD2 (human) [1] = target: T1, Flag-tagged PKD2 (human) (UniProt Q13563); experiment: co-IP; HEK cell lysates (CelLytic M lysis buffer), antibody 5 h at 4 °C, protein A/G magnetic beads overnight, Western blot; proteins transfected or endogenous; for the PKD2 N/C and PKD2/PKD2 pairs with or without RASSF4 over-expression
T1 sequence: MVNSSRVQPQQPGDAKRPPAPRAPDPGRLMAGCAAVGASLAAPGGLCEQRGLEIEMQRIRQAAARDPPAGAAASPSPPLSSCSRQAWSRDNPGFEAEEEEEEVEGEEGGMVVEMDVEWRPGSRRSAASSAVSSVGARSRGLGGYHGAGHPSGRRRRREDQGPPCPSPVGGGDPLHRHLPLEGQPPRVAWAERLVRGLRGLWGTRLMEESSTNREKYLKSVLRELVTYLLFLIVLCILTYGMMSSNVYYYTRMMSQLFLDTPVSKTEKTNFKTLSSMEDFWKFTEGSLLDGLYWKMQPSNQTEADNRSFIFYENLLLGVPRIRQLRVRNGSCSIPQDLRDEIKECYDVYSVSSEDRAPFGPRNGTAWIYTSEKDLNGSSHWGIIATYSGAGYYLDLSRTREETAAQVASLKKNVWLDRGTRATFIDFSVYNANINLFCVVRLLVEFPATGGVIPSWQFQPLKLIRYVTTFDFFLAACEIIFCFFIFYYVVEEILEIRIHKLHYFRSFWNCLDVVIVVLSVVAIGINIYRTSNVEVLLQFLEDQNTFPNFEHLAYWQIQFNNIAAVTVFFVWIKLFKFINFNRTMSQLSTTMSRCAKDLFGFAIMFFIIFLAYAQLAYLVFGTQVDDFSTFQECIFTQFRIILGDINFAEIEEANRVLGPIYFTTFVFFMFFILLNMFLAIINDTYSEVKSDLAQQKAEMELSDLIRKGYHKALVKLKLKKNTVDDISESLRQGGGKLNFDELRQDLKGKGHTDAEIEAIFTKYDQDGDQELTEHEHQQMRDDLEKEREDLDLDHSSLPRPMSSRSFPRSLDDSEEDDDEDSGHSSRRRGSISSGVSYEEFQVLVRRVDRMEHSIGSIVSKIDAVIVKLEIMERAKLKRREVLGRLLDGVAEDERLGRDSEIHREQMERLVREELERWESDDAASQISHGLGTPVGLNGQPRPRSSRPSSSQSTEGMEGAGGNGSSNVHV

[2] = target: T2, HA-tagged PKD2 C-terminus (I671-V968) (human) (UniProt Q13563); experiment: as above
T2 sequence: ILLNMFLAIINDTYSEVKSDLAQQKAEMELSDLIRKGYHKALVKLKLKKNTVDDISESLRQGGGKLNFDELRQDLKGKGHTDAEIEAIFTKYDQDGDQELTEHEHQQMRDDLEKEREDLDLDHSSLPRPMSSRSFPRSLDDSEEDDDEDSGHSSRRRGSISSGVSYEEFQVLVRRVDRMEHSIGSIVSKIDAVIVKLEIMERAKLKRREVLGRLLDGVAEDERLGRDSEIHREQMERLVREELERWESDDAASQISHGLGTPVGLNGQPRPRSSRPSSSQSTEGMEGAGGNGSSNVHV

[3] = target: T3, HA-tagged PKD2 N-terminus (M1-S219) (human) (UniProt Q13563); experiment: as above
T3 sequence: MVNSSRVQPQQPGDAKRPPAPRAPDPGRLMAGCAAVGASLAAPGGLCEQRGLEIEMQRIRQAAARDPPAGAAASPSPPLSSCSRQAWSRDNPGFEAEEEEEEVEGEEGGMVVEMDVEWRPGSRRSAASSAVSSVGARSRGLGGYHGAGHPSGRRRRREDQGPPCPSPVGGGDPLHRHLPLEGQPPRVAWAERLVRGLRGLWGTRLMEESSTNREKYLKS

[4] = target: T4, HA-tagged PKD2 central domain S1-S6 (K215-M675) (human) (UniProt Q13563); experiment: as above
T4 sequence: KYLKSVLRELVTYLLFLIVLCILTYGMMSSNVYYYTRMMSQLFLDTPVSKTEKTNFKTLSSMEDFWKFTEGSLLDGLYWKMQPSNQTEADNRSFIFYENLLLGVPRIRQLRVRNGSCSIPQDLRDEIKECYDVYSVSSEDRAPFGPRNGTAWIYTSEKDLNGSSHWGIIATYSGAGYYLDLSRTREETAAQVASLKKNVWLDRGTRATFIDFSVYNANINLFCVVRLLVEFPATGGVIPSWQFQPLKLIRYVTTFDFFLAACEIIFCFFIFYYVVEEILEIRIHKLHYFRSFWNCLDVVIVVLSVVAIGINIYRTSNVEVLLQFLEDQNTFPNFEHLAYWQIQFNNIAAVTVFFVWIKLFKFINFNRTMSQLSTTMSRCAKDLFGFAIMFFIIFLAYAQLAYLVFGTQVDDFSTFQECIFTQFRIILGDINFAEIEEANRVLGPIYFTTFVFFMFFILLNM

[5] = target: T5, GFP-tagged PKD2 C-terminus (I671-V968) (human) (UniProt Q13563); experiment: as above
T5 sequence: T2 sequence

[6] = target: T6, GFP-tagged PKD2 N-terminus (M1-S219) (human) (UniProt Q13563); experiment: as above
T6 sequence: T3 sequence

[7] = target: T7, GFP-tagged PKD2 central domain S1-S6 (K215-M675) (human) (UniProt Q13563); experiment: as above
T7 sequence: T4 sequence

Flag-tagged PKD2 (human) [8] = target: T1, Flag-tagged PKD2 (human); experiment: co-IP; HEK cells co-expressing full-length RASSF4 and PKD2 with a RASSF4 fragment as potential blocking peptide
[9] = target: T8, endogenous PKD2 of HEK cells (human (endogenous in HEK cells)) (UniProt Q13563); experiment: co-IP; HEK cell lysates (CelLytic M lysis buffer), antibody 5 h at 4 °C, protein A/G magnetic beads overnight, Western blot; proteins transfected or endogenous; for the PKD2 N/C and PKD2/PKD2 pairs with or without RASSF4 over-expression
T8 sequence: T1 sequence

[10] = target: T9, human PKD2, transiently over-expressed in HEK293T cells (tag not stated) (human) (UniProt Q13563); experiment: as above
T9 sequence: T1 sequence

[11] = target: T10, HA-tagged human PKD2 expressed in Xenopus oocytes (human) (UniProt Q13563); experiment: co-IP; lysates of Xenopus oocytes injected with mRNAs, protein A/G magnetic beads, Western blot
T10 sequence: T1 sequence

B1: GFP-tagged RASSF4 fragment M1-P156 (domain or fragment, UniProt Q9H2L5 1-156)
chain: MKEDCLPSSHVPISDSKSIQKSELLGLLKTYNCYHEGKSFQLRHREEEGTLIIEGLLNIAWGLRRPIRLQMQDDREQVHLPSTSWMPRRPSCPLKEPSPQNGNITAQGPSIQPVHKAESSTDSSGPLEEAEEAPQLMRTKSDASCMSQRRPKCRAP
binding (Flag-tagged PKD2 (human) [1]): binds
binding [2]: binds
binding [3]: binds
binding [4]: binds

B2: GFP-RASSF4 (protein, UniProt Q9H2L5 1-321)
chain: MKEDCLPSSHVPISDSKSIQKSELLGLLKTYNCYHEGKSFQLRHREEEGTLIIEGLLNIAWGLRRPIRLQMQDDREQVHLPSTSWMPRRPSCPLKEPSPQNGNITAQGPSIQPVHKAESSTDSSGPLEEAEEAPQLMRTKSDASCMSQRRPKCRAPGEAQRIRRHRFSINGHFYNHKTSVFTPAYGSVTNVRVNSTMTTLQVLTLLLNKFRVEDGPSEFALYIVHESGERTKLKDCEYPLISRILHGPCEKIARIFLMEADLGVEVPHEVAQYIKFEMPVLDSFVEKLKEEEEREIIKLTMKFQALRLTMLQRLEQLVEAK
binding (Flag-tagged PKD2 (human) [1]): binds
binding [2]: binds
binding [3]: binds
binding [4]: binds

B8: GFP-tagged RASSF4 fragment P134-S168 (domain or fragment, UniProt Q9H2L5 134-168)
chain: PQLMRTKSDASCMSQRRPKCRAPGEAQRIRRHRFS
binding (Flag-tagged PKD2 (human) [1]): binds

B10: GFP-tagged RASSF4 fragment G157-E269 (RA domain) (domain or fragment, UniProt Q9H2L5 157-269)
chain: GEAQRIRRHRFSINGHFYNHKTSVFTPAYGSVTNVRVNSTMTTLQVLTLLLNKFRVEDGPSEFALYIVHESGERTKLKDCEYPLISRILHGPCEKIARIFLMEADLGVEVPHE
binding (Flag-tagged PKD2 (human) [1]): no binding

B11: GFP-tagged RASSF4 fragment M1-L69 (domain or fragment, UniProt Q9H2L5 1-69)
chain: MKEDCLPSSHVPISDSKSIQKSELLGLLKTYNCYHEGKSFQLRHREEEGTLIIEGLLNIAWGLRRPIRL
binding (Flag-tagged PKD2 (human) [1]): binds

The next lines start with the values.

binding [5]: binds
binding [6]: binds
binding [7]: binds
B3: HA-RASSF4 (protein, UniProt Q9H2L5 1-321)
chain: B2 chain

binding (Flag-tagged PKD2 (human) [8]): binds
binding [9]: binds
binding [10]: binds
B4: human RASSF4, over-expressed in HEK cells (tag not stated) (protein, UniProt Q9H2L5 1-321)
chain: B2 chain

binding [9]: binds
B5: endogenous RASSF4 of HEK cells (protein, UniProt Q9H2L5 1-321)
chain: B2 chain

binding [11]: binds
B6: human RASSF4 expressed in Xenopus oocytes (protein, UniProt Q9H2L5 1-321)
chain: B2 chain

binding (Flag-tagged PKD2 (human) [1]): no binding
B7: GFP-tagged RASSF4 fragment V270-K321 (SARAH domain plus the C-terminus) (domain or fragment, UniProt Q9H2L5 270-321)
chain: VAQYIKFEMPVLDSFVEKLKEEEEREIIKLTMKFQALRLTMLQRLEQLVEAK

binding (Flag-tagged PKD2 (human) [1]): binds
B9: GFP-tagged RASSF4 fragment Q70-A133 (domain or fragment, UniProt Q9H2L5 70-133)
chain: QMQDDREQVHLPSTSWMPRRPSCPLKEPSPQNGNITAQGPSIQPVHKAESSTDSSGPLEEAEEA
